Laboratory results: PubChem BioAssay (NCI)
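Following 48 hours of exposure in 96-well plates, responses at five concentrations were used to interpolate endpoints linearly. GI50 marks 50% less growth. TGI denotes the concentration required for complete inhibition of growth.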

Tested on: NCI-H322M lung
Assay: inhibition of tumour cell growth, NCI panel, 48 h

Structure (SMILES) | GI50 [µM] | TGI [µM]
N#CC1=C(c2ccco2)Nc2c(c(-c3ccccc3)nn2-c2ccccc2)C12C(=O)Nc1ccc(Br)cc12 (stereo unspecified) | 43.3 | > 100
Cc1ccc(-c2nc(Nc3ccccc3C(=O)O)c3ccccc3n2)cc1 | 13.6 | > 100
C=C1CC[C@@H]2[C@]3(C)COC(c4cn[nH]c4-c4cccc(Br)c4)O[C@@H]3CC[C@@]2(C)[C@@H]1C/C=C1/C(=O)OCC1O (stereo partly specified) | 5.09 | 18
